# Out of some 43,000 compounds screened, about 200 (0.47%) were called active. Inconclusive results (about 12%) are left out. The call rests on the fitted dose curve; in most records, active means well fitted cell-killing curve with a large enough effect; inconclusive means small, poorly fitted or top-dose-only effect, or effect the other way; inactive means flat fitted curve, though single readings scatter. Some of the results follow.
# Assay: Cell viability qHTS assay in S16 Pmp22-F2sN cells; further: nearly all actives have a fitted effect of over 65% in size
# Conditions: S16 Pmp22-F2sN Schwann cells (luciferase reporters placed in the Pmp22 gene) viability, CellTiter-Glo, 24 h; series mostly up to 57.5 µM; activity change, negative = cytotoxicity: at the top concentration
# Summary of the method: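 Seed 500-1,000 S16 Pmp22-F2sN cells per well in phenol-red-free DMEM with 10% heat-inactivated FBS; pin-add 23 nL compound; incubate 24 h at 37C; add CellTiter-Glo, wait 15 min protected from light; read luminescence.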
# On the % scale 0 is the no-effect control and ±100 the full control effect.
row,Compound,"activity change, negative = cytotoxicity"
1,O=C(Nc1ccccc1Cl)c1sc2cccc(Cl)c2c1Cl,inactive: -0.0428%
2,CCCS(=O)(=O)c1nc(S(=O)(=O)c2ccc(C)cc2)c(NC)s1,inactive: -7.19%
3,COc1ccc(-n2c(=O)[nH]c3cc(C(=O)NCCc4ccccc4)ccc3c2=O)cc1OC,inactive: -19.5%
4,Cc1ccc(-n2ncc(C(=O)N3CCCCC3)c2C2CCN(C(=O)OC(C)(C)C)CC2)c(C)c1,inactive: 4.48%
5,CCOC(=O)c1c(NC(=O)c2ccc(OC)cc2)sc2c1CCCCC2,inactive: 2.28%
6,O=C(COc1ccccc1)Nc1ccc2nc(SCC(=O)N3CCOCC3)sc2c1,inactive: -1.3%
7,COc1ccc(-c2nc3c(c(SCC(=O)N4CCCCC4)n2)Cc2cc(Cl)ccc2O3)cc1,inactive: 25.9%
8,CN(C)c1ccc(CNC(=O)Cn2c(=O)oc3cc(S(=O)(=O)N4CCCCCC4)ccc32)cc1,inactive: -4.63%
9,CC(=O)c1ccc(NC(=O)Cn2nc(N3CCN(c4ccccc4)CC3)ccc2=O)cc1,inactive: 9.19%
10,CC(=O)c1sc(N2C(=O)c3oc4ccccc4c(=O)c3C2c2ccc(C)cc2)nc1C (centres undefined),inactive: -0.896%
11,CCCn1c2ccccc2c2nnc(SCC(=O)Nc3cccc(C(C)=O)c3)nc21,inactive: -19.5%
12,CCN(Cc1ccccc1)C(=O)c1cnn(-c2ccc(F)cc2)c1-n1cccc1,inactive: 14.3%
13,CCCSc1nc2c([nH]c3ccccc32)c(=O)n1C,inactive: 4.68%
14,O=C(NCc1cccnc1)c1nn(-c2ccc(F)cc2)nc1CO,inactive: -1.04%
15,COc1ccccc1CNC(=O)CSC1=Nc2ccccc2N=C(c2ccc(F)cc2)C1,inactive: 21.5%
16,CCc1ccc(NS(=O)(=O)c2ccc3[nH]cc(C(=O)NCCCOC(C)C)c(=O)c3c2)cc1,inactive: 0.787%
17,Cc1ccc(Cl)cc1N1CCN(S(=O)(=O)c2ccc3c(c2)CCN3C(=O)C2CCC2)CC1,inactive: 6.24%
18,Cc1cccc(CSc2ncc(Cl)c(C(=O)Nc3nc4ccc(F)cc4s3)n2)c1,inactive: -12.4%
19,COc1cc(NC(=O)Cn2cc(C(=O)c3ccc(F)cc3)c(=O)c3ccc(C)nc32)cc(OC)c1,inactive: -20.6%
20,CCOc1ccc(NC(=O)c2ncoc2-c2ccco2)cc1,inactive: -9.4%
21,O=C(Cn1c(=O)nc(-c2ccccc2)c2cc(Cl)ccc21)Nc1ccc(F)c(Cl)c1,inactive: 10.9%
22,COc1cccc(CNC(=O)c2ccc(-n3c(C)cc4c3CCC(C)C4)cc2)c1 (centres undefined),inactive: -3.53%
23,CC(C)NC(=O)c1ccc(NC(=O)N2CCCCc3ccccc32)cc1,inactive: -2.47%
24,CCOC(=O)c1[nH]c2ccccc2c1NC(=O)c1ccc(Br)cc1,inactive: 5.88%

row,Compound,"activity change, negative = cytotoxicity"
1,COc1cccc(CNC(=O)C2CCN(S(=O)(=O)c3ccc4c(c3)CCCN4C(C)=O)CC2)c1,inactive: 5.92%
2,Cc1ccc2c(c1)N(CCCC(=O)Nc1cccc(C(F)(F)F)c1)C(=O)CO2,inactive: -18.2%
3,Cc1ccc(-c2cc(C(=O)NCc3ccccc3Cl)c3ccccc3n2)cc1C,inactive: -3.71%
4,O=C(Nc1ccccc1C(F)(F)F)n1ncc2cc(Cl)ccc21,inactive: -2.96%
5,COc1ccc2cc3c(N)nn(C(=O)c4ccc(OC)c(OC)c4)c3nc2c1,inactive: -1.18%
6,CCOc1ccc(-c2nc3c(c(SCC(=O)N4CCCCC4)n2)Cc2cccc(OC)c2O3)cc1,inactive: 5.36%
7,Cc1ccccc1-c1nnn(CC(=O)Nc2sc3c(c2C#N)CCC(C(C)(C)C)C3)n1 (centres undefined),inactive: 8.33%
8,Cc1ccc2ncc(C(=O)Nc3ccc(OC(F)(F)F)cc3)c(=O)n2c1,inactive: 2.36%
9,O=c1[nH]c2ccc(NCc3ccc(-c4ccc(Br)cc4)o3)cc2[nH]1,inactive: -23%
10,O=C1CCCc2cc(S(=O)(=O)N3CCCC(C(=O)NCc4ccc(Cl)cc4)C3)ccc2N1 (centres undefined),inactive: 0.372%
11,COc1cc(OC)cc(-c2nc(-c3ccc4c(c3)[nH]c(=O)n4C)no2)c1,inactive: 0.951%
12,CCc1ccc(NC(=O)Cn2c(=O)n(CCCCC(=O)NCCc3ccc(Cl)cc3)c(=O)c3ccccc32)cc1,inactive: 10.3%
13,O=C(NCC(c1ccc(Cl)cc1)N1CCOCC1)c1ccccc1F (centres undefined),inactive: 0.278%
14,CCOc1ccc(-c2nnc(SCC(=O)Nc3cccc(OC)c3)nc2-c2ccc(OCC)cc2)cc1,inactive: 0.945%
15,COc1ccc(C(=O)NCC(c2ccc3c(c2)OCO3)N2CCN(c3ccccc3F)CC2)cc1 (centres undefined),inactive: -21.1%
16,O=C(COc1ccc([N+](=O)[O-])cc1)Nc1nc2c(s1)CCCC2,inactive: 0.876%
17,COc1cccc(C2CC(=O)Nc3c2c(=O)[nH]c2nc4ccccc4n32)c1 (centres undefined),inactive: 1.19%
18,COc1ccc(Cn2c(C(=O)O)c(CNC3CCCC3)c3ccc(OC)cc32)cc1,inactive: 4.55%
19,CCn1c(=O)cc(SCC(=O)NCc2cccc(Cl)c2)c2ccccc21,inactive: -8.84%
20,COc1ccccc1C(=O)N1c2ncnn2C2(CCCCC2)[C@@H]2CCCC[C@@H]21,inactive: -13.7%
21,CCOC(=O)c1ccc(NC(=O)C(CC)Sc2nc3ccncc3[nH]2)cc1 (centres undefined),inactive: -10.6%
22,CCN1C(=O)c2ccccc2Sc2ccc(NC(=O)N3CCN(c4cc(C)ccc4C)CC3)cc21,inactive: -19.5%
23,Cc1cc(C)cc(-n2c(C)cc(C(=O)C(=O)Nc3ccccc3F)c2C)c1,inactive: 1.2%
24,Cc1ccc(CNC(=O)Nc2cc(C(=O)NCc3ccc(C(C)C)cc3)ccc2N2CCCC2)cc1,inactive: -4.51%

row,Compound,"activity change, negative = cytotoxicity"
1,CCCCOc1ccc(C(=O)Nc2ccc(-c3cc4ccccc4oc3=O)cc2)cc1,inactive: 3.87%
2,CC(C)c1ccc(OCC(=O)NCCS(=O)(=O)N2CCN(c3ccc(F)cc3)CC2)cc1,inactive: 10.4%
3,Cc1c(Cl)cccc1NC(=O)c1ccc2c(c1)CCCN2S(C)(=O)=O,inactive: -5.01%
4,CCOc1ccc(-c2nn(-c3ccccc3)cc2C2NC(=O)NC(C)=C2C(=O)OC(C)C)cc1 (centres undefined),inactive: -0.679%
5,COc1ccccc1NC(=O)CSc1nncn2c1cc1sccc12,inactive: 13.8%
6,Cc1ccccc1CNC(=O)c1ccc2nc(SCc3ccc(F)cc3)n(C)c2c1,inactive: -0.672%
7,CCOCCCNC(=O)C(c1ccccc1)N(Cc1ccc2c(c1)OCO2)C(=O)c1ccc(NC(C)=O)cc1 (centres undefined),inactive: -1.18%
8,CCc1ccccc1NC(=O)Cn1cc(S(=O)(=O)N2CCCC2)c(S(=O)(=O)N2CCCC2)c1,inactive: -0.751%
9,O=C(c1ccco1)N(Cc1cccnc1)c1nc2c(F)cc(F)cc2s1,inactive: -12.6%
10,Cc1ccc2cccc(NC(=O)c3ccc(OC(C)C)cc3)c2n1,inactive: -17.3%
11,O=C(NCc1ccc2c(c1)OCO2)c1ccc2c(c1)N(Cc1ccccc1F)C(=O)c1ccccc1S2,inactive: 1.24%
12,Cc1ccccc1CN1C(=O)c2ccccc2S(=O)c2ccc(C(=O)NCc3ccc(Cl)cc3)cc21 (centres undefined),inactive: -17%
13,CCCOc1ccc(-c2cccc(NS(=O)(=O)c3ccccc3)c2)nn1,inactive: 0.86%
14,Cc1ccc(-n2ncc3c(NCc4ccccc4)ncnc32)cc1Cl,inactive: -1.15%
15,Cc1ccc(-n2ccn(CC(=O)NCCc3ccccc3)c(=O)c2=O)cc1C,inactive: 1.15%
16,CCCCOc1ccc(C(=O)N(Cc2ccc(N(C)C)cc2)Cc2ccco2)cc1,inactive: 1.86%
17,CC(C)(C)c1ccc(-c2nc(NC(=O)CSc3ncnc4sc5c(c34)CCCC5)ns2)cc1,inactive: -3.57%
18,COc1ccc(NC(=O)CN(C)S(=O)(=O)c2ccc3c(c2)CCCN3C(C)=O)cc1,inactive: -9.63%
19,CCc1ccc(NC(=O)CSc2nccn2-c2ccc(F)cc2)cc1,inactive: -11.2%
20,COc1ccc(N2CC(NC(=O)/C=C\c3ccc4c(c3)OCO4)CC2=O)cc1OC (centres undefined),inactive: 14.3%
21,Cc1ccccc1Cn1c(SCc2ccc(C(=O)NC3CCCCC3)cc2)nc2ccncc21,inactive: 16.2%
22,CC(C)N(Cc1nc(-c2ccc(Cl)cc2)no1)C(=O)c1ccc(C(C)(C)C)cc1,inactive: 10.7%
23,O=C(NCCc1csc(-c2cccnc2)n1)c1cccc(Cl)c1,inactive: -4.37%
24,Cc1ccc2ncc(C(=O)c3ccc(C)c(C)c3)c(S(=O)(=O)c3ccc(F)cc3)c2c1,inactive: -24.3%

row,Compound,"activity change, negative = cytotoxicity"
1,CCOc1ccc(CC(=O)NCCc2sc3nc(-c4ccc(F)cc4)nn3c2C)cc1,inactive: -4.7%
2,CC1=C(c2ccc(Cl)cc2)S(=O)(=O)N=C1N1CCN(c2cccc(C)c2C)CC1,inactive: -1.24%
3,COc1cccc(CN2C(=O)c3ccccc3Sc3ccc(C(=O)OCc4ccco4)cc32)c1,inactive: 18.5%
4,Cc1cccc(NC(=O)CSc2nc3ccc(NC(=O)c4ccccc4)cc3s2)c1,inactive: 11.2%
5,CCOc1ccc(-c2cc3nc(C4CCN(C(=O)OC(C)(C)C)CC4)c(C(=O)Nc4cccc(CC)c4)cn3n2)cc1,inactive: 13.6%
6,CC(=O)N1c2ccc(S(=O)(=O)N3CCCCCC3)cc2CC1C(=O)NCc1cccc(C)c1 (centres undefined),inactive: 0.191%
7,COc1cc(NC(=O)Cn2c(=O)cc(C)c3c(C)nn(-c4ccc(C)cc4)c32)cc(OC)c1,inactive: 21%
8,Cc1ccc(CNc2nnc(C)c3nnn(Cc4ccc(F)cc4)c23)cc1,inactive: -7.22%
9,CCC(=O)Oc1c(Sc2ccc(Cl)cc2)c(C)nn1-c1ccccc1,inactive: 3.63%
10,CCOc1ccc(NC(=O)CSC2=Nc3ccccc3C3=NC(CCC(=O)NCc4ccco4)C(=O)N23)cc1 (centres undefined),inactive: 6.99%
11,Cc1ccc(-c2nc(CS(=O)(=O)CC(=O)Nc3ccc(Br)cc3F)c(C)o2)cc1,inactive: -1.57%
12,NC(=O)c1c(NC(=O)CS(=O)(=O)c2ccc(Cl)cc2)sc2c1CCCCC2,inactive: -3.45%
13,Cc1ccc(Nc2c(-c3ccc(Br)o3)nc3ccccn23)cc1,inactive: 0.846%
14,COc1ccc(S(=O)(=O)NCc2nc3nc(C)cc(C)n3n2)cc1,inactive: -7.69%
15,COc1ccc2oc(=O)c(-c3nnc(-c4ccc(C)cc4)o3)cc2c1,inactive: -5.69%
16,CCN(CC)S(=O)(=O)c1ccc2c(c1)N(CC(=O)NCc1ccccc1)C(=O)C1CCCCN21 (centres undefined),inactive: -13.8%
17,Cc1cc2c(cc1S(=O)(=O)Nc1ccc(OC(F)(F)F)cc1)OCC(=O)N2,inactive: -17.2%
18,Cc1cc(Cl)ccc1NS(=O)(=O)c1c(C(=O)N2CCC(C)CC2)c(C)n(C)c1C,inactive: 0.65%
19,CC1CCCN(c2nc3c(-c4ccc(Cl)cc4)nnn3c3ccccc23)C1 (centres undefined),inactive: -0.183%
20,CCn1cc(S(=O)(=O)c2cccc(C)c2)c(=O)c2cc(F)c(N3CCCC(C)C3)cc21 (centres undefined),inactive: -13.1%
21,O=C(c1ccc2c(c1)N(Cc1ccccc1F)C(=O)c1ccccc1S2(=O)=O)N1CCN(c2ccccn2)CC1,inactive: 20.8%
22,CCOc1ccc(CNC(=O)C2CCCCN2S(=O)(=O)c2ccc(F)cc2)cc1OC (centres undefined),inactive: -15.6%

# From PubChem BioAssay AID1508642 (National Center for Advancing Translational Sciences (NCATS), 2021)
